This assay has as its system NCI-H322M lung. The assay can be described thus: inhibition of tumour cell growth, NCI panel, 48 h.

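Growth conditions: 96-well plates. Treatment: test compound, 48 hours, 5 concentrations. Analysis: linear interpolation between bracketing concentrations; unreached endpoints set to highest concentration. At the GI50, growth is halved. TGI marks complete inhibition of growth.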

`COc1cccc2c1[C@H](OC)[C@]13O[C@@]1(C2=O)[C@H](O)[C@H](C)[C@@](O)(C(=O)[C@@H]1O[C@H]1C)[C@@H]3O`: the GI50 was 237 nM and the TGI was found to be 740 nM.

(Values after PubChem BioAssay (NCI).)
